Laboratory results as given in the supplement of paper PMC9151546.
Single values are uncertain, as repeats are few or missing.

Legend:
CHO-K1 [1] = experiment: relative survival (nuclei to bead ratio vs DMSO control) (% of vehicle control); higher = more surviving cells
Procedure: (§1)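 Flow-cytometric in vitro micronucleus assay (Litron MicroFlow) in CHO-K1 cells in 96-well plates, 19 concentrations (4.5-200 µM, n=1 per concentration). Without S9, cells were exposed for 24 h and sampled at 48 h. With Aroclor 1254-induced rat liver S9, cells were exposed for 3-4 h and sampled at 27-28 h. Read-outs are %MN and %hypodiploid nuclei relative to nucleated events, and relative survival as the nuclei-to-bead ratio versus the 1% DMSO vehicle control (x100).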

CHO-K1 [2] = experiment: hypodiploid nuclei frequency (% of nucleated events); higher = more hypodiploid events (aneugenic)
Procedure: as §1

CHO-K1 [3] = experiment: micronucleus frequency (% of nucleated events); higher = more micronuclei (genotoxic)
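Throughout, for hypodiploid nuclei frequency (% of nucleated events): hypodiploid nuclei gated on a flow cytometer with 488 nm excitation after SYTOX Green staining, cultures at 37 °C, positive controls vinblastine without S9 and cyclophosphamide with S9.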
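Throughout, for micronucleus frequency (% of nucleated events): cells lysed with nuclei stained by SYTOX Green, then micronucleus-gated events counted against nucleated events by flow cytometry with 488 nm excitation.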
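Throughout, for relative survival (nuclei to bead ratio vs DMSO control): Lysed-cell nuclei stained with SYTOX Green and counted against counting beads by flow cytometry at 488 nm excitation, with vinblastine (no S9) and cyclophosphamide (plus S9) as positive controls.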

Cc1cc(-c2ccc(N)c(C)c2)ccc1N [3,3'-Dimethylbenzidine]
Conditions	hypodiploid nuclei frequency, CHO-K1 [2] [%]	micronucleus frequency, CHO-K1 [3] [%]	relative survival, CHO-K1 [1]
concentration: 4.5 (µM), S9 metabolic activation: with S9, exposure time: 3-4 hours	0.32	0.7	116
concentration: 4.5 (µM), S9 metabolic activation: without S9, exposure time: 24 hours	0.78	1.26	122
concentration: 5.63 (µM), S9 metabolic activation: with S9, exposure time: 3-4 hours	0.34	0.98	115
concentration: 5.63 (µM), S9 metabolic activation: without S9, exposure time: 24 hours	1.02	1.46	122
concentration: 7.04 (µM), S9 metabolic activation: with S9, exposure time: 3-4 hours	0.12	1.02	114
concentration: 7.04 (µM), S9 metabolic activation: without S9, exposure time: 24 hours	0.86	2.04	118
concentration: 8.8 (µM), S9 metabolic activation: with S9, exposure time: 3-4 hours	0.28	1.04	103
concentration: 8.8 (µM), S9 metabolic activation: without S9, exposure time: 24 hours	1.38	1.08	115
concentration: 11 (µM), S9 metabolic activation: with S9, exposure time: 3-4 hours	0.48	0.86	124
concentration: 11 (µM), S9 metabolic activation: without S9, exposure time: 24 hours	1.52	1.44	126
concentration: 13.7 (µM), S9 metabolic activation: with S9, exposure time: 3-4 hours	0.32	1	104
concentration: 13.7 (µM), S9 metabolic activation: without S9, exposure time: 24 hours	1.88	1.64	117
concentration: 17.2 (µM), S9 metabolic activation: with S9, exposure time: 3-4 hours	0.34	1.2	105
concentration: 17.2 (µM), S9 metabolic activation: without S9, exposure time: 24 hours	2.34	1.22	122
concentration: 21.5 (µM), S9 metabolic activation: with S9, exposure time: 3-4 hours	0.3	1.18	98
concentration: 21.5 (µM), S9 metabolic activation: without S9, exposure time: 24 hours	2.72	1.6	121
concentration: 26.8 (µM), S9 metabolic activation: with S9, exposure time: 3-4 hours	0.3	1.2	120
concentration: 26.8 (µM), S9 metabolic activation: without S9, exposure time: 24 hours	1.06	1.58	94.6
concentration: 33.6 (µM), S9 metabolic activation: with S9, exposure time: 3-4 hours	0.18	1.02	125
concentration: 33.6 (µM), S9 metabolic activation: without S9, exposure time: 24 hours	1.44	1.22	105
concentration: 41.9 (µM), S9 metabolic activation: with S9, exposure time: 3-4 hours	0.3	0.98	137
concentration: 41.9 (µM), S9 metabolic activation: without S9, exposure time: 24 hours	1.52	1.52	102
concentration: 52.4 (µM), S9 metabolic activation: with S9, exposure time: 3-4 hours	0.26	0.96	114
concentration: 52.4 (µM), S9 metabolic activation: without S9, exposure time: 24 hours	1.7	1.7	111
concentration: 65.5 (µM), S9 metabolic activation: with S9, exposure time: 3-4 hours	0.2	1.1	120
concentration: 65.5 (µM), S9 metabolic activation: without S9, exposure time: 24 hours	1.76	1.5	90
concentration: 81.9 (µM), S9 metabolic activation: with S9, exposure time: 3-4 hours	0.48	1.12	116
concentration: 81.9 (µM), S9 metabolic activation: without S9, exposure time: 24 hours	2.56	1.56	96.6
concentration: 102 (µM), S9 metabolic activation: with S9, exposure time: 3-4 hours	0.36	1	117
concentration: 102 (µM), S9 metabolic activation: without S9, exposure time: 24 hours	2.52	1.74	86.3
concentration: 128 (µM), S9 metabolic activation: with S9, exposure time: 3-4 hours	0.38	0.92	108
concentration: 128 (µM), S9 metabolic activation: without S9, exposure time: 24 hours	4.1	2.68	77.6
concentration: 160 (µM), S9 metabolic activation: with S9, exposure time: 3-4 hours	0.34	1.18	116
concentration: 160 (µM), S9 metabolic activation: without S9, exposure time: 24 hours	5.24	3.26	77.4
concentration: 200 (µM), S9 metabolic activation: with S9, exposure time: 3-4 hours	0.32	1.02	109
concentration: 200 (µM), S9 metabolic activation: without S9, exposure time: 24 hours	5.34	4.3	68

Cc1ccc(N)c(N)c1 [3,4-Diaminotoluene]
Conditions	hypodiploid nuclei frequency, CHO-K1 [2] [%]	micronucleus frequency, CHO-K1 [3] [%]	relative survival, CHO-K1 [1]
concentration: 4.55 (µM), S9 metabolic activation: with S9, exposure time: 3-4 hours	0.4	1.84	119
concentration: 4.55 (µM), S9 metabolic activation: without S9, exposure time: 24 hours	0.78	2.6	109
concentration: 5.69 (µM), S9 metabolic activation: with S9, exposure time: 3-4 hours	0.12	1.54	89.5
concentration: 5.69 (µM), S9 metabolic activation: without S9, exposure time: 24 hours	0.94	1.8	124
concentration: 7.11 (µM), S9 metabolic activation: with S9, exposure time: 3-4 hours	0.18	1.24	81.6
concentration: 7.11 (µM), S9 metabolic activation: without S9, exposure time: 24 hours	1.28	2.62	114
concentration: 8.88 (µM), S9 metabolic activation: with S9, exposure time: 3-4 hours	0.28	1.18	97.7
concentration: 8.88 (µM), S9 metabolic activation: without S9, exposure time: 24 hours	0.8	2.58	123
concentration: 11.1 (µM), S9 metabolic activation: with S9, exposure time: 3-4 hours	0.26	1.36	96.2
concentration: 11.1 (µM), S9 metabolic activation: without S9, exposure time: 24 hours	1.1	1.94	108
concentration: 13.9 (µM), S9 metabolic activation: with S9, exposure time: 3-4 hours	0.2	0.98	93.4
concentration: 13.9 (µM), S9 metabolic activation: without S9, exposure time: 24 hours	0.86	2.44	139
concentration: 17.4 (µM), S9 metabolic activation: with S9, exposure time: 3-4 hours	0.22	1.4	93.1
concentration: 17.4 (µM), S9 metabolic activation: without S9, exposure time: 24 hours	0.76	1.76	92.1
concentration: 21.7 (µM), S9 metabolic activation: with S9, exposure time: 3-4 hours	0.3	1.88	108
concentration: 21.7 (µM), S9 metabolic activation: without S9, exposure time: 24 hours	1.02	1.88	107
concentration: 27.1 (µM), S9 metabolic activation: with S9, exposure time: 3-4 hours	0.08	1.62	82.9
concentration: 27.1 (µM), S9 metabolic activation: without S9, exposure time: 24 hours	0.68	2.08	89.5
concentration: 33.9 (µM), S9 metabolic activation: with S9, exposure time: 3-4 hours	0.12	0.86	57.2
concentration: 33.9 (µM), S9 metabolic activation: without S9, exposure time: 24 hours	0.92	1.78	71.8
concentration: 42.4 (µM), S9 metabolic activation: with S9, exposure time: 3-4 hours	0.26	1.38	73.9
concentration: 42.4 (µM), S9 metabolic activation: without S9, exposure time: 24 hours	1.1	1.98	78.1
concentration: 53 (µM), S9 metabolic activation: with S9, exposure time: 3-4 hours	0.16	1.18	65
concentration: 53 (µM), S9 metabolic activation: without S9, exposure time: 24 hours	1.02	2.56	78.1
concentration: 66.2 (µM), S9 metabolic activation: with S9, exposure time: 3-4 hours	0.26	1.16	59.4
concentration: 66.2 (µM), S9 metabolic activation: without S9, exposure time: 24 hours	1.48	2.26	65.3
concentration: 82.7 (µM), S9 metabolic activation: with S9, exposure time: 3-4 hours	0.26	1.24	77.9
concentration: 82.7 (µM), S9 metabolic activation: without S9, exposure time: 24 hours	2.78	3.2	79.6
concentration: 103 (µM), S9 metabolic activation: with S9, exposure time: 3-4 hours	0.14	1.56	73.7
concentration: 103 (µM), S9 metabolic activation: without S9, exposure time: 24 hours	9.94	3.16	43.4
concentration: 129 (µM), S9 metabolic activation: with S9, exposure time: 3-4 hours	0.12	1.06	54.1
concentration: 129 (µM), S9 metabolic activation: without S9, exposure time: 24 hours	3.66	3.8	50.9
concentration: 162 (µM), S9 metabolic activation: with S9, exposure time: 3-4 hours	0.28	1.62	56.7
concentration: 162 (µM), S9 metabolic activation: without S9, exposure time: 24 hours	–	–	33.5
concentration: 202 (µM), S9 metabolic activation: with S9, exposure time: 3-4 hours	0.16	1.58	84.5
concentration: 202 (µM), S9 metabolic activation: without S9, exposure time: 24 hours	2.02	3	44

CC(=O)OCCC(C)C [3-Methylbutyl acetate]
Conditions	hypodiploid nuclei frequency, CHO-K1 [2] [%]	micronucleus frequency, CHO-K1 [3] [%]	relative survival, CHO-K1 [1]
concentration: 4.5 (µM), S9 metabolic activation: with S9, exposure time: 3-4 hours	0.34	1.94	130
concentration: 4.5 (µM), S9 metabolic activation: without S9, exposure time: 24 hours	0.56	0.88	114
concentration: 5.63 (µM), S9 metabolic activation: with S9, exposure time: 3-4 hours	0.3	1.98	131
concentration: 5.63 (µM), S9 metabolic activation: without S9, exposure time: 24 hours	1.28	1.5	102
concentration: 7.04 (µM), S9 metabolic activation: with S9, exposure time: 3-4 hours	0.24	2.06	111
concentration: 7.04 (µM), S9 metabolic activation: without S9, exposure time: 24 hours	0.92	1.12	126
concentration: 8.8 (µM), S9 metabolic activation: with S9, exposure time: 3-4 hours	0.34	2.38	112
concentration: 8.8 (µM), S9 metabolic activation: without S9, exposure time: 24 hours	0.94	1.04	119
concentration: 11 (µM), S9 metabolic activation: with S9, exposure time: 3-4 hours	0.4	2.62	100
concentration: 11 (µM), S9 metabolic activation: without S9, exposure time: 24 hours	0.96	1.26	94.4
concentration: 13.7 (µM), S9 metabolic activation: with S9, exposure time: 3-4 hours	0.36	1.62	101
concentration: 13.7 (µM), S9 metabolic activation: without S9, exposure time: 24 hours	0.8	1.18	113
concentration: 17.2 (µM), S9 metabolic activation: with S9, exposure time: 3-4 hours	0.14	1.4	95.5
concentration: 17.2 (µM), S9 metabolic activation: without S9, exposure time: 24 hours	0.84	1.24	105
concentration: 21.5 (µM), S9 metabolic activation: with S9, exposure time: 3-4 hours	0.2	1.36	94.1
concentration: 21.5 (µM), S9 metabolic activation: without S9, exposure time: 24 hours	0.86	1.02	104
concentration: 26.8 (µM), S9 metabolic activation: with S9, exposure time: 3-4 hours	0.32	1.62	108
concentration: 26.8 (µM), S9 metabolic activation: without S9, exposure time: 24 hours	1.46	1.64	99.8
concentration: 33.6 (µM), S9 metabolic activation: with S9, exposure time: 3-4 hours	0.1	1.4	114
concentration: 33.6 (µM), S9 metabolic activation: without S9, exposure time: 24 hours	1.1	0.98	124
concentration: 41.9 (µM), S9 metabolic activation: with S9, exposure time: 3-4 hours	0.28	2.12	124
concentration: 41.9 (µM), S9 metabolic activation: without S9, exposure time: 24 hours	1.56	1.16	101
concentration: 52.4 (µM), S9 metabolic activation: with S9, exposure time: 3-4 hours	0.28	1.72	144
concentration: 52.4 (µM), S9 metabolic activation: without S9, exposure time: 24 hours	1.66	1.18	88.6
concentration: 65.5 (µM), S9 metabolic activation: with S9, exposure time: 3-4 hours	0.28	1.48	110
concentration: 65.5 (µM), S9 metabolic activation: without S9, exposure time: 24 hours	1.4	1.2	83.5
concentration: 81.9 (µM), S9 metabolic activation: with S9, exposure time: 3-4 hours	0.36	2.9	101
concentration: 81.9 (µM), S9 metabolic activation: without S9, exposure time: 24 hours	1.8	1.74	102
concentration: 102 (µM), S9 metabolic activation: with S9, exposure time: 3-4 hours	0.3	1.62	104
concentration: 102 (µM), S9 metabolic activation: without S9, exposure time: 24 hours	2.52	1.66	116
concentration: 128 (µM), S9 metabolic activation: with S9, exposure time: 3-4 hours	0.24	1.5	84.9
concentration: 128 (µM), S9 metabolic activation: without S9, exposure time: 24 hours	1.64	2.84	123
concentration: 160 (µM), S9 metabolic activation: with S9, exposure time: 3-4 hours	0.29	1.72	88.4
concentration: 160 (µM), S9 metabolic activation: without S9, exposure time: 24 hours	1.64	1.64	120
concentration: 200 (µM), S9 metabolic activation: with S9, exposure time: 3-4 hours	0.2	1.6	108
concentration: 200 (µM), S9 metabolic activation: without S9, exposure time: 24 hours	2.52	2.2	83.5
